Laboratory results reported in the supplement of paper PMC3334620.
Whole data set: some 33,000 sequences, median “E-score (-0.5 to 0.5)” near -0.021, cut for the highest 2% near 0.32. This is one part of the list.

Target: T1, Zap1 (UniProt P47043)
T1 sequence: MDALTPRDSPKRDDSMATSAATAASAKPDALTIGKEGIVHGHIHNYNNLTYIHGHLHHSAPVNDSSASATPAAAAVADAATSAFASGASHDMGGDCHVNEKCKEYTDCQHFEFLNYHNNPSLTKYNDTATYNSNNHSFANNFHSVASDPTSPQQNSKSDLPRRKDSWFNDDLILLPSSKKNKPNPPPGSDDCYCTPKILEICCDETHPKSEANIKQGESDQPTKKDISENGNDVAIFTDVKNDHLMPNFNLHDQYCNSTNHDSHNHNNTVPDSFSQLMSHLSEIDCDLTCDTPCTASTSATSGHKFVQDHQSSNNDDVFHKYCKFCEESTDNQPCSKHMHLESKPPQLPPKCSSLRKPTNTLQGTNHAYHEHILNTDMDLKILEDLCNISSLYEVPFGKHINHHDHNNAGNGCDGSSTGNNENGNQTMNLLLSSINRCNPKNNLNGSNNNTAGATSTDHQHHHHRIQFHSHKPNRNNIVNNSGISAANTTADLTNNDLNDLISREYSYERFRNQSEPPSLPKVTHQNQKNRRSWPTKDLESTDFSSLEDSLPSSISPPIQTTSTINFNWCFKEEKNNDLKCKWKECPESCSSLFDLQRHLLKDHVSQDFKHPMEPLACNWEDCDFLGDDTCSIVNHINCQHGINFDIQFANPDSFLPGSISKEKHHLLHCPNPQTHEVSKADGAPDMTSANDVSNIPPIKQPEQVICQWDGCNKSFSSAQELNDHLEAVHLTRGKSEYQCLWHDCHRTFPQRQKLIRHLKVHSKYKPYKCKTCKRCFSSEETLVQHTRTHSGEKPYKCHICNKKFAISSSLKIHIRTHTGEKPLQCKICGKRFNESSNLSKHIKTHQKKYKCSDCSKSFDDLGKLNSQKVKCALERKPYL
Assay: PBM E-score (8-mer binding enrichment) (E-score (-0.5 to 0.5)); higher = stronger / more preferred TF binding; most listed sequences are background and not binding sites
Settings: protein concentration: 200 nM; construct: GST-full length
Outline: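 Yeast transcription factors carrying a GST tag, as full-length proteins or DNA-binding domains, were produced by PURExpress in vitro transcription/translation. About 100-200 nM protein was applied to universal all-10-mer Agilent arrays, double-stranded by primer extension on fresh or once-stripped slides. Bound protein was detected with fluorescent anti-GST, and scans were normalised with masliner. The Universal PBM Analysis Suite gave each ungapped eight-base word, pooled with its reverse complement, an E-score, a modified Wilcoxon-Mann-Whitney statistic.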

Sequence | PBM E-score
AAAGAGGG | -0.104
CTGCCATA | -0.0723
AGCGCTAC | -0.122
GGCGAAAC | -0.0392
TGGATCCA | -0.00387
GTAGATGA | 0.0898
ATTTGCGC | -0.0712
GATCCCAC | -0.0425
AGTGTTAT | 0.125
AATCTTAG | -0.0102
GAGCAAAA | -0.128
ATCCAGGA | -0.0629
CACTACGC | -0.163
AACCATAC | 0.159
TGACTACA | -0.068
CAACTGCG | -0.2
CTCCCTCC | -0.076
GAACAGCC | -0.137
ACATTCGG | -0.116
ACTAGTAA | 0.161
AGAGTCAC | 0.0197
CACTTGGA | -0.00068

Sequence | PBM E-score
CAGGTAGG | -0.0242
AGATACTA | -0.0794
AGGCCCTA | -0.0142
AGCCATCA | -0.137
GACTGAAA | 0.0185
CGAAAACC | 0.274
AATATTAT | 0.0902
CGTTAACC | 0.294
TCTAGGAA | -0.0336
GAGAAAGA | 0.111
CCGATTTA | 0.0418
ACCTAAGA | 0.193
ATACCATG | 0.0791
ACAAATCT | 0.112
AGGAATAA | 0.118
GGCTCGCA | -0.134
ACCCTGCC | 0.186
ATTGGAAG | -0.0234
GCACAATA | -0.0647
ATGTATCC | -0.222
GATGCGAA | -0.149
CTCCTGCC | -0.312

Sequence | PBM E-score
GGCAATAA | -0.0396
AGAAACTG | -0.0216
CGACTTAA | -0.0837
CGAACTGC | -0.137
TGTCGAAA | -0.0156
AGTAAGGG | 0.241
ATCTAGTG | -0.0857
CAATAGTG | 0.00976
GGTGGAGA | -0.266
CAGATTGA | -0.0519
GGAAAGCA | -0.139
CTGGTGAC | -0.0173
AGGGGTGG | 0.131
GATCAAGC | -0.0745
CAAGACTG | -0.129
CATCCGTA | 0.0269
CCGCCAAG | -0.0908
GAGCACCA | 0.00973
CACACGTG | 0.0023
ACAAGACG | -0.133
CGCCTGGC | -0.305
AGTTTAAT | 0.113

Sequence | PBM E-score
TCTTGGCA | -0.0566
AATCTAAG | 0.0186
AAACCGCT | -0.0552
ACATGGTC | -0.0378
CCTGAGCC | -0.123
CCAACATC | -0.104
AAACGAGC | -0.11
ACACGTCT | -0.137
CTTGTACA | -0.0389
ATTCACCA | 0.0528
CTACACCA | 0.144
CTCGGCAC | -0.0659
ACGTGTGG | -0.148
CGTTCTGC | -0.111
AAGGCTAC | 0.00201
ACCAAGCC | -0.026
AGTTGTGG | 0.184
CCCAGAAA | 0.167
GGGCAAAC | -0.0731
TAGCCGGA | -0.112
